Laboratory results: paper PMC12040169 (PLOS Biology, 2025)
This is one part of the list.

tested on: T1, C. trachomatis L2/434/Bu expressing GFP (CTL2-GFP); set-up: species or system HeLa; C. trachomatis total inclusion area by high-content imaging, normalised to DMSO; details: total inclusion area; 28.5 h, 10 µM; inhibitor
T1 construct: L2/434/Bu GFP intracellular growth in HeLa cells
Procedure, shortened: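 Bulk GFP and resorufin signals were read first. Wells were then fixed, stained with Hoechst and imaged to detect GFP inclusions and host nuclei. MICs followed the previously described calculation.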

Point of comparison: `O=C(O)CNC(=O)CCn1c(-c2ccccc2)cc2ccccc21` [CBK286780], “% of control remaining” value 83.6074. Against it:
- CC(C)CN(CC(N)=O)CC(=O)NC1(c2ccccc2)CCC1 [CBK066883T] — higher, 98.5004
- COCc1nc(NCCn2c(C)cc(C)nc2=O)cc(C2CCOC2)n1 (stereo not shown) [CBK307495] — lower, 70.8798
- O=C(O)c1cc(-c2ccccc2)oc1CSCCO [CBK286559] — higher, 87.9206
- CCCNC(=O)C[C@@H]1CCN(C(=O)c2ccnc(Cl)c2)C[C@@H]1CC [CBK289138] — lower, 74.1237
- COc1ccc(-c2cnc(N)c(N3CCC[C@@H]3CO)n2)c(OC)c1OC [CBK063505] — higher, 96.155
- NC(=O)CN1CCCN(c2ccnc(OCCN3CCOCC3)n2)CC1 [CBK083804] — lower, 75.0723
- Cc1cccc(-c2nnn(CC(=O)O)n2)c1 [CBK068105] — lower, 72.2993
- CCCc1cc(C(=O)N2CCN(C)C3(CCNC(=O)CC3)C2)ccn1 (stereo not shown) [CBK306815] — higher, 102.531
- Cc1cc(C)n(C2CCN(Cc3nc4ccccc4[nH]3)CC2)n1 [CBK281620] — higher, 105.043
- O=C(NC(c1ccccc1)c1ccsc1)C1CCN(C2Cc3ccccc3C2)CC1 (stereo not shown) [CBK148541] — lower, 82.7616
- COc1ccc(NC(=O)N[C@@H]2C=C[C@@H](c3c(C)nn(CCC#N)c3C)C2)cc1 [CBK288804] — higher, 99.8187
- COc1ccc(CC2CCCN2C(=O)Cn2cncn2)cc1 (stereo not shown) [CBK306351] — lower, 49.5945
- O=C(OCCN1CCOCC1)c1ccccc1I [CBK033860] — higher, 90.4092
- c1c(C2CC2)[nH]c2nc(N3CCCC3)nc(N3CCCC3)c12 [CBK016707G] — lower, 0
- CCc1nn(CC(=O)NCC2CC2)c(=O)c2cc3sccc3n12 [CBK284055] — lower, 75.9615
- CCOC(=O)N1CCC(NCC(C)(C)CN(C)C)CC1 [CBK028516] — lower, 74.0394
- c1nncn1/N=C1/CCCc2nonc21 [CBK261065] — higher, 98.9401
- O=C(Nc1ccc(Cc2ccc(NC(=O)c3ccccc3F)c(O)c2)cc1O)c1ccccc1F [CBK268366] — higher, 96.0722
- COc1ccc(Br)c(C(=O)Nc2cc(N3CCNCC3)c3occc3c2)c1 [CBK061757C] — lower, 80.3763
- CC(=O)NC(NC(=S)Nc1sc2c(c1C#N)CCCC2)C(Cl)(Cl)Cl (stereo not shown) [CBK261053] — higher, 98.4714
- O=C(Oc1ccc(-n2ccnc2)cc1)c1ccc(-c2ccccc2)cc1 [CBK095145] — higher, 102.498
- COc1ccc(CC(=O)Nc2ccc3n(c2=O)C[C@H]2C[C@@H]3CN(C(C)=O)C2)cc1 [CBK289203] — higher, 91.438
- O=C(CO)N1CC2(CCN(CCCn3c(=O)[nH]c4ccccc43)CC2)c2ccccc21 [CBK131506] — lower, 83.5455
- CC(=O)N/N=C(\C)c1ccc(-n2cnnn2)cc1 [CBK261252] — higher, 110.702
- CCN(C)Cc1cccc(CNc2ncnc3c2cnn3CCC#N)c1 [CBK305959] — lower, 56.1365
- Cc1nn(C)cc1C(C)NC(=O)C1CC2C=CC1C21CC1 (stereo not shown) [CBK282088] — higher, 88.4201
- OC(CNCC1COc2ccccc2O1)C(F)(F)F (stereo not shown) [CBK074834] — lower, 83.1023
- Cn1cc(CN2CCC(c3cncc(-c4cccc(C(F)(F)F)c4)n3)CC2)cn1 [CBK286150] — higher, 119.669
- CC(=O)Nc1ccc(-c2nc3c4ccccc4c4ccc(I)cc4c3[nH]2)cc1 [CBK262667] — higher, 97.814
- O=C(Nc1ccncc1)OCCNC(=O)c1ccncc1 [CBK262150] — higher, 106.023
- CCNC(=O)N1CC2(CCN(CCOc3ccc(OC)cc3)CC2)c2ccccc21 [CBK144600T] — lower, 50.015
- COc1cc(C(C)c2cc3c(cc2OCC(=O)O)OCO3)cc(OC)c1OC (stereo not shown) [CBK200109] — higher, 99.5984
- OCCCNc1nccnc1-c1cccc(F)c1 [CBK088976] — higher, 126.543
- Cn1c(SCC(=O)Nc2cccc(C(=O)O)c2)nnc1-c1ccccc1 [CBK300479] — higher, 97.7566
- Cc1ccc(N(CC(=O)O)S(C)(=O)=O)cc1C [CBK286978] — lower, 68.4528
- CCN1CC(C(=O)Nc2nc3c(s2)CCCCCC3)CC1=O (stereo not shown) [CBK281526] — higher, 108.301
- O=C(C1CC1)N1C[C@H]2CCCN(S(=O)(=O)c3cccs3)[C@H]2C1 [CBK282255] — higher, 114.383
- CCc1cc(C(=O)NC(Cn2ccnc2)C(C)(C)C)cc(=O)[nH]1 (stereo not shown) [CBK304410] — higher, 107.624
- O=C(Nc1snnc1-c1ccc(Cl)cc1)c1ccc(OC(F)(F)F)cc1 [CBK153247] — lower, 0.3214
- CCC1SC2=NC(C)=C(C(=O)OCc3ccccc3)C(c3ccccc3)N2C1=O (stereo not shown) [CBK293960] — higher, 106.496
- O=C(CCN1C(=O)/C(=C\c2cccs2)SC1=S)Nc1cc(Cl)ccc1O [CBK263643] — higher, 92.1689
- CCN(Cc1ccc(OC)c(OC)c1)C(=O)CSc1nc(CC(=O)O)cs1 [CBK296643] — higher, 94.5057
- Cc1cc(C)cc(NC(=O)C2C3C=CC(O3)C2C(=O)O)c1 (stereo not shown) [CBK262642] — higher, 99.7028
- CCCn1c(C)nnc1CN(CC1CCCO1)C1CCC(C)CC1 (stereo not shown) [CBK304485] — lower, 47.6879
- COc1nnc(-c2ccc(C)cc2)c2ccccc12 [CBK263466] — higher, 95.0262
- CN(C)CC1CCCCN1C(=O)C1CC(=O)N(c2cccc(F)c2)C1 (stereo not shown) [CBK282192] — lower, 56.4601
- NNc1ccc(/C=C/c2ccc(NN)cc2S(=O)(=O)O)c(S(=O)(=O)O)c1 [CBK278163N] — higher, 106.29
- CCOC(=O)N1CCC(NS(=O)(=O)c2ccc3c(c2)oc(=O)n3C)CC1 [CBK304666] — lower, 66.6701
- Cc1nc(C)n(CC2CCCN(S(=O)(=O)c3cnc4ccsc4c3)C2)n1 (stereo not shown) [CBK306274] — lower, 79.5974
- Cc1ccc(C)c(C(C)NC(=O)C2CCCN(S(C)(=O)=O)C2)c1 (stereo not shown) [CBK304672] — lower, 61.25
- NS(=O)(=O)c1ccc(CCNC2CC(=O)N(Cc3ccccc3)C2=O)cc1 (stereo not shown) [CBK267439] — higher, 103.812
